# Test results published in the supplement of paper PMC8821664.
# Counter-ions that a name gives are not always drawn. The list shows a part of the results. Repeats are few or missing, and single values can be far off.
# Test system: Beas-2B AQP5-HiBiT reporter cells
# Assay: AQP5-HiBiT luminescence relative to vehicle (ratio to vehicle); higher = higher AQP5-HiBiT protein abundance
# Conditions: 10 µM; 18 h
# 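Note: monoclonal Beas-2B line stably carrying CMV promoter-driven AQP5-HiBiT, 5,000 cells per well in 384-well plates, lytic HiBiT plus LgBiT NanoLuc luminescence, FDA-approved drug library screen.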
row,Structure (SMILES),AQP5-HiBiT luminescence
1,CC1(C)S[C@@H]2[C@H](NC(=O)[C@H](N)c3ccccc3)C(=O)N2[C@H]1C(=O)O [Ampicillin Trihydrate],0.845
2,CN1CCC[C@H]1c1cccnc1 [Nicotine],0.741
3,CN(C)CCOC(c1ccccc1)c1ccccc1.Cn1c(=O)c2[nH]c(Cl)nc2n(C)c1=O [Dimenhydrinate],0.872
4,CN(C)CC/C=C1/c2ccccc2Sc2ccc(Cl)cc21 [Chlorprothixene],1.19
5,Oc1c(I)cc(Cl)c2cccnc12 [Clioquinol],0.728
6,CN(C)/N=N/c1[nH]cnc1C(N)=O [Dacarbazine],0.976
7,CC1(C)NC(=O)N(c2ccc([N+](=O)[O-])c(C(F)(F)F)c2)C1=O [Nilutamide],0.906
8,O=c1ccn([C@@H]2O[C@H](CO)[C@@H](O)[C@H]2O)c(=O)[nH]1 [Uridine],1.07
9,N=C(N)NCCN1CCCCCCC1 [Guanethidine Monosulfate],1.1
10,CC[C@H]1OC(=O)[C@H](C)[C@@H](O[C@H]2C[C@@](C)(OC)[C@@H](O)[C@H](C)O2)[C@H](C)[C@@H](O[C@@H]2O[C@H](C)C[C@H](N(C)C)[C@H]2O)[C@](C)(O)C[C@@H](C)[C@@H]2N[C@@H](COCCOC)O[C@H]([C@H]2C)[C@]1(C)O [Dirithromycin],0.895
11,CNCCCN1c2ccccc2CCc2ccccc21 [Desipramine hydrochloride],1.12
12,Nc1nc(Cl)nc2c1ncn2[C@H]1C[C@H](O)[C@@H](CO)O1 [Cladribine],0.477
13,CC(C)(Sc1cc(C(C)(C)C)c(O)c(C(C)(C)C)c1)Sc1cc(C(C)(C)C)c(O)c(C(C)(C)C)c1 [Probucol],1.04
14,COc1cccc2c1C(=O)c1c(O)c3c(c(O)c1C2=O)C[C@@](O)(C(=O)CO)C[C@@H]3O[C@H]1C[C@H](N)[C@@H](O)[C@H](C)O1 [Epirubicin hydrochloride],0.737
15,C[C@]12CC[C@@H]3c4ccc(OS(=O)(=O)O)cc4CC[C@H]3[C@@H]1CCC2=O [Estropipate],0.739
16,FC(F)(F)C(Cl)Br (stereo not given) [Anestan],0.867
17,O=C(c1ccc(OCCN2CCCCC2)cc1)c1c(-c2ccc(O)cc2)sc2cc(O)ccc12 [Raloxifene hydrochloride],1.99
18,CC(C(=O)O)c1ccc(-c2ccccc2)c(F)c1 (stereo not given) [Flurbiprofen],0.869
19,OCCN1CCN(CCCN2c3ccccc3Sc3ccc(Cl)cc32)CC1 [Perphenazine],2
20,N#Cc1ccc2[nH]cc(CCCCN3CCN(c4ccc5oc(C(N)=O)cc5c4)CC3)c2c1 [Vilazodone],2.57

row,Structure (SMILES),AQP5-HiBiT luminescence
1,CC(=O)Nc1cccc(-n2c(=O)n(C3CC3)c(=O)c3c(Nc4ccc(I)cc4F)n(C)c(=O)c(C)c32)c1,0.762
2,C[C@H](CCC(=O)NCCS(=O)(=O)O)[C@H]1CC[C@H]2[C@@H]3[C@H](O)C[C@@H]4C[C@H](O)CC[C@]4(C)[C@H]3C[C@H](O)[C@]12C [Taurocholic acid sodium salt hydrate],0.844
3,CC1=NN(c2ccc(C)c(C)c2)C(=O)/C1=N\Nc1cccc(-c2cccc(C(=O)O)c2)c1O [Eltrombopag],0.865
4,CC1Cc2ccccc2N1NC(=O)c1ccc(Cl)c(S(N)(=O)=O)c1 (stereo not given) [Indapamide],0.867
5,CCn1cc(C(=O)O)c(=O)c2ccc(C)nc21 [Nalidixic acid],0.831
6,Cc1ncc(CO)c(CO)c1O [Pyridoxine hydrochloride],1
7,C[C@H]1c2cccc(O)c2C(=O)C2=C(O)[C@]3(O)C(=O)C(C(N)=O)=C(O)[C@@H](N(C)C)[C@@H]3[C@@H](O)[C@@H]21 [Doxycycline],0.551
8,CC(=O)O[C@H]1C(=O)[C@@]2(C)[C@H]([C@H](OC(=O)c3ccccc3)[C@]3(O)C[C@H](OC(=O)[C@H](O)[C@@H](NC(=O)c4ccccc4)c4ccccc4)C(C)=C1C3(C)C)[C@]1(OC(C)=O)CO[C@@H]1C[C@@H]2O [Paclitaxel],2.1
9,Cc1[nH]c(=O)c(C#N)cc1-c1ccncc1 [Milrinone],1.31
10,COc1ccc(OC)c(C(O)CNC(=O)CN)c1 (stereo not given) [Midodrine hydrochloride],1.02
11,Nc1nc(CC(=O)Nc2ccc(CCNC[C@H](O)c3ccccc3)cc2)cs1 [Mirabegron],0.816
12,Cc1ccc(/C(=C\CN2CCCC2)c2ccccn2)cc1 [Triprolidine hydrochloride],0.819
13,Cn1c(=O)c2c(ncn2C)n(C)c1=O [Caffeine],1.07
14,CCOC(=O)[C@H](CCc1ccccc1)N[C@@H](C)C(=O)N1Cc2ccccc2C[C@H]1C(=O)O [Quinapril hydrochloride],0.953
15,CCN(CCO)CCCC(C)Nc1ccnc2cc(Cl)ccc12 (stereo not given) [Hydroxychloroquine sulfate],1.24
16,C#C[C@]1(O)CC[C@H]2[C@@H]3CCc4cc(OC5CCCC5)ccc4[C@H]3CC[C@@]21C [Quinestrol],0.911
17,CC(Oc1c(Cl)cccc1Cl)C1=NCCN1 (stereo not given) [Lofexidine hydrochloride],1.18
18,CCn1cc(C(=O)O)c(=O)c2cc(F)c(N3CCNCC3)nc21 [Enoxacin],0.688
19,CC(=O)Nc1ccc(O)cc1 [Acetaminophen],0.945
20,Cc1c(C)c2c(c(C)c1O)CC[C@@](C)(CCC[C@H](C)CCC[C@H](C)CCCC(C)C)O2 [Vitamin E],0.952
